Assay results as given in a collection of fitness landscapes (doi:10.1126/science.1257360).
The other results are listed elsewhere or left out.

B1: PhoQ; a variant is named by its letters at X, in order, P23837 (parent)
chain: MKKLLRLFFPLSLRVRFLLATAAVVLVLSLAYGMVALIGYSVSFDKTTFRLLRGESNLFYTLAKWENNKLHVELPENIDKQSPTMTLIYDENGQLLWAQRDVPWLMKMIQPDWLKSNGFHEIEADVNDTSLLLSGDHSIQQQLQEVREDDDDAEMTHSVAVNVYPATSRMPKLTIVVVDTIPVELKSSYMVWSWFIYVLSANLLLVIPLLWVAAWWSLRPIEALAKEVRELEEHNRELLNPATTRELTSLVRNLNRLLKSERERYDKYRTTLTDLTHSLKTPLXXLQXXLRSLRSEKMSVSDAEPVMLEQISRISQQIGYYLHRASMRGGTLLSRELHPVAPLLDNLTSALNKVYQRKGVNISLDISPEISFVGEQNDFVEVMGNVLDNACKYCLEFVEISARQTDEHLYIVVEDDGPGIPLSKREVIFDRGQRVDTLRPGQGVGLAVAREITEQYEGKIVAGESMLGGARMEVIFGRQHSAPKDE

Variants of: B1
Test: enrichment ratio after two sorts for PhoP signalling (ratio (wild type AVST 3.29)); higher = more functional
Conditions: with PhoP (E. coli)

| Variant | enrichment ratio |
| --- | --- |
| VAGF | ≤ 0.25 |
| KPCA | ≤ 0.25 |
| LHAL | ≤ 0.25 |
| AHQY | ≤ 0.25 |
| HGGR | ≤ 0.25 |
| ESIC | ≤ 0.25 |
| RWIA | ≤ 0.25 |
| PQLC | ≤ 0.25 |
| IRDR | ≤ 0.25 |
| HILC | ≤ 0.25 |
| AIFM | ≤ 0.25 |
| NPIC | ≤ 0.25 |
| DSFA | ≤ 0.25 |
| YPWS | ≤ 0.25 |
| VHAK | ≤ 0.25 |
| PARN | ≤ 0.25 |
| TMGS | 7.47 |
| SKCG | 3.69 |
| ADVQ | 10.9 |
| LWAK | ≤ 0.25 |
| ENYG | ≤ 0.25 |
| TPDM | ≤ 0.25 |
| PHDS | ≤ 0.25 |
| FMKE | ≤ 0.25 |

| Variant | enrichment ratio |
| --- | --- |
| SRPS | ≤ 0.25 |
| FGPL | ≤ 0.25 |
| MNKS | ≤ 0.25 |
| TCSA | 18.5 |
| RIPI | ≤ 0.25 |
| VWHC | ≤ 0.25 |
| EGVQ | ≤ 0.25 |
| FVCC | ≤ 0.25 |
| LEKD | ≤ 0.25 |
| FPAC | ≤ 0.25 |
| VNPF | ≤ 0.25 |
| NDLI | ≤ 0.25 |
| LMPD | ≤ 0.25 |
| NSML | 4.86 |
| VSAY | ≤ 0.25 |
| YRLL | ≤ 0.25 |
| GIEP | ≤ 0.25 |
| DCQS | ≤ 0.25 |
| GLVE | ≤ 0.25 |
| PTVQ | ≤ 0.25 |
| ESKR | ≤ 0.25 |
| MTAG | 4.05 |
| RQLA | ≤ 0.25 |
| TYKI | ≤ 0.25 |

| Variant | enrichment ratio |
| --- | --- |
| RLAM | ≤ 0.25 |
| FSTQ | ≤ 0.25 |
| AGDH | ≤ 0.25 |
| GQLF | 4.98 |
| DKCI | ≤ 0.25 |
| PRQH | ≤ 0.25 |
| SMLN | 4.75 |
| AYEL | ≤ 0.25 |
| NLHS | ≤ 0.25 |
| NHFW | ≤ 0.25 |
| PEKF | ≤ 0.25 |
| SNSI | 12.4 |
| YDCN | ≤ 0.25 |
| SLYD | ≤ 0.25 |
| NYKT | ≤ 0.25 |
| KEHM | ≤ 0.25 |
| YPAA | ≤ 0.25 |
| RPES | ≤ 0.25 |
| CSSR | ≤ 0.25 |
| NSPR | ≤ 0.25 |
| WWAS | ≤ 0.25 |
| YGQY | ≤ 0.25 |
| KIHF | ≤ 0.25 |
| KEGN | ≤ 0.25 |

| Variant | enrichment ratio |
| --- | --- |
| HREV | ≤ 0.25 |
| ELCI | ≤ 0.25 |
| ADVP | ≤ 0.25 |
| KYCN | ≤ 0.25 |
| SVSP | ≤ 0.25 |
| DITN | ≤ 0.25 |
| WERG | ≤ 0.25 |
| QWFR | ≤ 0.25 |
| LLHT | ≤ 0.25 |
| LYAD | ≤ 0.25 |
| HPWY | ≤ 0.25 |
| LNVP | ≤ 0.25 |
| LDNC | ≤ 0.25 |
| NGYD | ≤ 0.25 |
| GGCT | 15.6 |
| QFVM | ≤ 0.25 |
| KNTC | ≤ 0.25 |
| QELR | ≤ 0.25 |
| FSED | ≤ 0.25 |
| DKMF | ≤ 0.25 |
| YQEL | ≤ 0.25 |
| TEAV | 7.67 |
| VLGD | ≤ 0.25 |
| MHIS | ≤ 0.25 |

| Variant | enrichment ratio |
| --- | --- |
| MAYF | 16.5 |
| RGYL | ≤ 0.25 |
| MTVI | 1.36 |
| DKRR | ≤ 0.25 |
| AICK | 24.4 |
| RTYA | ≤ 0.25 |
| KLYA | ≤ 0.25 |
| PATW | ≤ 0.25 |
| VTFR | ≤ 0.25 |
| EPRY | ≤ 0.25 |
| TANI | 0.96 |
| YEFE | ≤ 0.25 |
| MWCF | ≤ 0.25 |
| PKYI | ≤ 0.25 |
| FYDD | ≤ 0.25 |
| AHTK | ≤ 0.25 |
| IEAW | 2.56 |
| KQSG | ≤ 0.25 |
| AYVS | ≤ 0.25 |
| DCYP | ≤ 0.25 |
| FQQA | 3.46 |
| FNKH | ≤ 0.25 |
| QFGE | ≤ 0.25 |
| IMIY | ≤ 0.25 |

| Variant | enrichment ratio |
| --- | --- |
| DMQP | 1.17 |
| SGWA | ≤ 0.25 |
| LDMA | ≤ 0.25 |
| WSAA | ≤ 0.25 |
| FWHV | ≤ 0.25 |
| PQIS | ≤ 0.25 |
| IHKL | ≤ 0.25 |
| YDTF | ≤ 0.25 |
| TPSG | ≤ 0.25 |
| RGYI | ≤ 0.25 |
| IHNM | ≤ 0.25 |
| WNPA | ≤ 0.25 |
| GMVL | 2.37 |
| KMCY | ≤ 0.25 |
| KEDT | ≤ 0.25 |
| MQHH | ≤ 0.25 |
| PHTK | ≤ 0.25 |
| WEFH | ≤ 0.25 |
| MPYF | ≤ 0.25 |
| WGFM | ≤ 0.25 |
| AMFE | ≤ 0.25 |
| TDII | 1.96 |
| HHIM | ≤ 0.25 |
| IGVK | ≤ 0.25 |

| Variant | enrichment ratio |
| --- | --- |
| FIPD | ≤ 0.25 |
| NHQN | ≤ 0.25 |
| WEHK | ≤ 0.25 |
| QINR | ≤ 0.25 |
| QLET | ≤ 0.25 |
| NTWR | ≤ 0.25 |
| IWSQ | ≤ 0.25 |
| DMNS | ≤ 0.25 |
| FVPW | ≤ 0.25 |
| RHFV | ≤ 0.25 |
| DLKF | ≤ 0.25 |
| DVIY | ≤ 0.25 |
| NWDG | ≤ 0.25 |
| LAEF | ≤ 0.25 |
| YCWL | ≤ 0.25 |
| SVSE | 2.45 |
| SPSV | ≤ 0.25 |
| WAML | 0.83 |
| YLAL | ≤ 0.25 |
| IQKE | ≤ 0.25 |
| VDNM | ≤ 0.25 |
| DTIQ | ≤ 0.25 |
| GHMN | ≤ 0.25 |
| TANL | 10 |

| Variant | enrichment ratio |
| --- | --- |
| TMTQ | 14.3 |
| NWLV | ≤ 0.25 |
| VWQN | ≤ 0.25 |
| GVAL | 1.02 |
| DLNW | ≤ 0.25 |
| LNSD | ≤ 0.25 |
| GHYM | ≤ 0.25 |
| HARV | ≤ 0.25 |
| QKDC | ≤ 0.25 |
| RDCA | ≤ 0.25 |
| RMHG | ≤ 0.25 |
| GEHS | ≤ 0.25 |
| HQDD | ≤ 0.25 |
| RSVF | ≤ 0.25 |
| VIVA | ≤ 0.25 |
| ANDT | ≤ 0.25 |
| GYWY | ≤ 0.25 |
| GNTV | ≤ 0.25 |
| TEGY | 1.36 |
| GPAP | ≤ 0.25 |
| NFEW | ≤ 0.25 |
| LEVW | ≤ 0.25 |
| ACTR | 10.6 |
| CELL | ≤ 0.25 |

| Variant | enrichment ratio |
| --- | --- |
| KTFE | ≤ 0.25 |
| ERPT | ≤ 0.25 |
| EHDV | ≤ 0.25 |
| VPYG | ≤ 0.25 |
| WGRL | ≤ 0.25 |
| SDRV | ≤ 0.25 |
| LFKW | ≤ 0.25 |
| MSEW | ≤ 0.25 |
| FKLT | ≤ 0.25 |
| NFFC | ≤ 0.25 |
| FKYN | ≤ 0.25 |
| VYWS | ≤ 0.25 |
| IIYT | ≤ 0.25 |
| IIST | ≤ 0.25 |
| HEDW | ≤ 0.25 |
| TKRG | ≤ 0.25 |
| PGSL | ≤ 0.25 |
| MTAS | 12 |
| IELR | ≤ 0.25 |
| LYHN | ≤ 0.25 |
| QVWL | 1.05 |
| WKYI | ≤ 0.25 |
| LRTL | ≤ 0.25 |
| IVNL | ≤ 0.25 |

| Variant | enrichment ratio |
| --- | --- |
| SVWG | ≤ 0.25 |
| PKIW | ≤ 0.25 |
| NPCC | ≤ 0.25 |
| AWQY | ≤ 0.25 |
| YPYV | ≤ 0.25 |
| GATS | ≤ 0.25 |
| TDVS | 3.07 |
| ARCK | ≤ 0.25 |
| VRQF | ≤ 0.25 |
| SHWV | ≤ 0.25 |
| LKAI | ≤ 0.25 |
| RFED | ≤ 0.25 |
| PFQE | ≤ 0.25 |
| YKTN | ≤ 0.25 |
| QMRF | ≤ 0.25 |
| AAFM | ≤ 0.25 |
| RGAD | ≤ 0.25 |
| RFEE | ≤ 0.25 |
| YAKV | ≤ 0.25 |
| YKFT | ≤ 0.25 |
| HIAN | ≤ 0.25 |
| HRPS | ≤ 0.25 |
| LYCW | ≤ 0.25 |
| EMED | ≤ 0.25 |

| Variant | enrichment ratio |
| --- | --- |
| YINP | ≤ 0.25 |
| FAFF | ≤ 0.25 |
| HACQ | ≤ 0.25 |
| EDWY | ≤ 0.25 |
| WIYP | ≤ 0.25 |
| KGQL | ≤ 0.25 |
| WRLS | ≤ 0.25 |
| KNGI | ≤ 0.25 |
| FPAF | ≤ 0.25 |
| VVGW | ≤ 0.25 |
| KVSS | ≤ 0.25 |
| APEF | ≤ 0.25 |
| IWVV | ≤ 0.25 |
| HQRP | ≤ 0.25 |
| VARS | ≤ 0.25 |
| DTIT | ≤ 0.25 |
| FPGL | ≤ 0.25 |
| RVDP | ≤ 0.25 |
| PHND | ≤ 0.25 |
| RIWE | ≤ 0.25 |
| SPAL | ≤ 0.25 |
| YYHQ | ≤ 0.25 |
| VLMY | ≤ 0.25 |
| LDTH | ≤ 0.25 |

| Variant | enrichment ratio |
| --- | --- |
| TEDM | ≤ 0.25 |
| GPIE | ≤ 0.25 |
| KSTF | ≤ 0.25 |
| NCAS | ≤ 0.25 |
| IYAW | ≤ 0.25 |
| HVFY | ≤ 0.25 |
| EFCS | ≤ 0.25 |
| DIMP | ≤ 0.25 |
| FHTC | ≤ 0.25 |
| YKDP | ≤ 0.25 |
| YAWV | ≤ 0.25 |
| DKIY | ≤ 0.25 |
| QTKI | ≤ 0.25 |
| YFMW | ≤ 0.25 |
| AKPT | ≤ 0.25 |
| AKNR | ≤ 0.25 |
| VEDP | ≤ 0.25 |
| IYHI | ≤ 0.25 |
| MQDY | ≤ 0.25 |
| IEVQ | ≤ 0.25 |
| TRAW | ≤ 0.25 |
| VHPY | ≤ 0.25 |
| FAVV | ≤ 0.25 |
| MMAG | 5.66 |

| Variant | enrichment ratio |
| --- | --- |
| LYHI | ≤ 0.25 |
| MCQK | ≤ 0.25 |
| PFDL | ≤ 0.25 |
| RKFN | ≤ 0.25 |
| AFFH | ≤ 0.25 |
| SQDH | ≤ 0.25 |
| SHVS | ≤ 0.25 |
| TGDW | ≤ 0.25 |
| SWQE | ≤ 0.25 |
| QSQG | ≤ 0.25 |
| MYAH | ≤ 0.25 |
| TVGP | ≤ 0.25 |
| GKLP | 0.378 |
| HKNE | ≤ 0.25 |
| QRYQ | ≤ 0.25 |
| ARGA | ≤ 0.25 |
| QVHN | ≤ 0.25 |
| YRMF | ≤ 0.25 |
